Source: the supplement of paper PMC8728848
The other results are listed elsewhere or left out.

Assays:
Assay in all cases: glycan array binding signal (z-score within array); higher = stronger binding
Settings in all cases: glycan notation: IUPAC condensed, linker removed
[1] = target: GalNAc3S(b1-4)GlcNAc3S
In short: (§1)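 The binding signal is a Z-score computed within each array and averaged over linkers. Arrays of the same protein sequence at different concentrations or buffers were also averaged together. Data originate from 3228 arrays in the Consortium for Functional Glycomics database, kept only where the protein sequence was available.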

[2] = target: GalNAc3S(b1-4)[Fuc(a1-3)]GlcNAc
In short: as §1

[3] = target: GalNAc4S6S(b1-4)GlcNAc
In short: as §1

[4] = target: GalNAc6S(b1-4)GlcNAc
In short: as §1

[5] = target: Glc(a1-4)Glc
In short: as §1

[6] = target: Glc(a1-4)Glc(a1-4)Glc(a1-4)Glc
In short: as §1

[7] = target: Glc(a1-6)Glc(a1-6)Glc
In short: as §1

[8] = target: Glc(a1-6)Glc(a1-6)Glc(a1-6)Glc
In short: as §1

[9] = target: Glc(b1-4)Glc
In short: as §1

[10] = target: Glc(b1-6)Glc
In short: as §1

[11] = target: GlcA(b1-3)Gal
In short: as §1

[12] = target: GlcA(b1-3)GlcNAc
In short: as §1

[13] = target: GlcA(b1-6)Gal
In short: as §1

[14] = target: GlcA3S(b1-3)Gal(b1-4)GlcNAc(b1-2)Man
In short: as §1

[15] = target: GlcA3S(b1-3)Gal(b1-4)GlcNAc(b1-3)Gal(b1-4)Glc
In short: as §1

[16] = target: GlcNAc(a1-3)Gal(b1-4)GlcNAc
In short: as §1

[17] = target: GlcNAc(a1-4)Gal(b1-3)GlcNAc
In short: as §1

[18] = target: GlcNAc(a1-4)Gal(b1-4)GalNAc
In short: as §1

[19] = target: GlcNAc(a1-4)Gal(b1-4)GlcNAc
In short: as §1

[20] = target: GlcNAc(a1-4)Gal(b1-4)GlcNAc(b1-3)Gal(b1-4)Glc
In short: as §1

[21] = target: GlcNAc(a1-4)Gal(b1-4)GlcNAc(b1-3)Gal(b1-4)GlcNAc
In short: as §1

[22] = target: GlcNAc(a1-4)Gal(b1-4)GlcNAc(b1-3)Gal(b1-4)GlcNAc(b1-3)Gal(b1-4)GlcNAc
In short: as §1

[23] = target: GlcNAc(a1-4)Gal(b1-4)GlcNAc(b1-3)Gal(b1-4)[Fuc(a1-3)]GlcNAc(b1-3)Gal(b1-4)[Fuc(a1-3)]GlcNAc
In short: as §1

[24] = target: GlcNAc(a1-6)Gal(b1-4)GlcNAc
In short: as §1

[25] = target: GlcNAc(b1-2)Gal(b1-3)GalNAc
In short: as §1

[26] = target: GlcNAc(b1-2)Man(a1-3)[GlcNAc(b1-2)Man(a1-6)]Man(b1-4)GlcNAc(b1-4)GlcNAc
In short: as §1

[27] = target: GlcNAc(b1-2)Man(a1-3)[GlcNAc(b1-2)Man(a1-6)]Man(b1-4)GlcNAc(b1-4)[Fuc(a1-6)]GlcNAc
In short: as §1

[28] = target: GlcNAc(b1-2)Man(a1-3)[GlcNAc(b1-4)][GlcNAc(b1-2)Man(a1-6)]Man(b1-4)GlcNAc(b1-4)GlcNAc
In short: as §1

[29] = target: GlcNAc(b1-2)Man(a1-3)[GlcNAc(b1-4)][GlcNAc(b1-2)Man(a1-6)]Man(b1-4)GlcNAc(b1-4)[Fuc(a1-6)]GlcNAc
In short: as §1

[30] = target: GlcNAc(b1-2)[GlcNAc(b1-4)]Man(a1-3)[GlcNAc(b1-2)Man(a1-6)]Man(b1-4)GlcNAc(b1-4)GlcNAc
In short: as §1

[31] = target: GlcNAc(b1-2)[GlcNAc(b1-4)]Man(a1-3)[GlcNAc(b1-4)][GlcNAc(b1-2)Man(a1-6)]Man(b1-4)GlcNAc(b1-4)GlcNAc
In short: as §1

[32] = target: GlcNAc(b1-2)[GlcNAc(b1-4)]Man(a1-3)[GlcNAc(b1-4)][GlcNAc(b1-2)[GlcNAc(b1-6)]Man(a1-6)]Man(b1-4)GlcNAc(b1-4)GlcNAc
In short: as §1

[33] = target: GlcNAc(b1-2)[GlcNAc(b1-4)]Man(a1-3)[GlcNAc(b1-4)][GlcNAc(b1-2)[GlcNAc(b1-6)]Man(a1-6)]Man(b1-4)GlcNAc(b1-4)[Fuc(a1-6)]GlcNAc
In short: as §1

[34] = target: GlcNAc(b1-2)[GlcNAc(b1-6)]Man(a1-6)[GlcNAc(b1-2)Man(a1-3)]Man(b1-4)GlcNAc(b1-4)GlcNAc
In short: as §1

[35] = target: GlcNAc(b1-2)[GlcNAc(b1-6)]Man(a1-6)[GlcNAc(b1-2)Man(a1-3)]Man(b1-4)GlcNAc(b1-4)[Fuc(a1-6)]GlcNAc
In short: as §1

[36] = target: GlcNAc(b1-2)[GlcNAc(b1-6)]Man(a1-6)[GlcNAc(b1-4)][GlcNAc(b1-2)Man(a1-3)]Man(b1-4)GlcNAc(b1-4)GlcNAc
In short: as §1

[37] = target: GlcNAc(b1-3)Fuc
In short: as §1

[38] = target: GlcNAc(b1-3)Gal
In short: as §1

[39] = target: GlcNAc(b1-3)Gal(b1-3)GalNAc
In short: as §1

[40] = target: GlcNAc(b1-3)Gal(b1-4)Glc
In short: as §1

[41] = target: GlcNAc(b1-3)Gal(b1-4)GlcNAc
In short: as §1

[42] = target: GlcNAc(b1-3)Gal(b1-4)GlcNAc(b1-2)Man(a1-3)[GlcNAc(b1-3)Gal(b1-4)GlcNAc(b1-2)Man(a1-6)]Man(b1-4)GlcNAc(b1-4)GlcNAc
In short: as §1

[43] = target: GlcNAc(b1-3)Gal(b1-4)GlcNAc(b1-2)Man(a1-3)[GlcNAc(b1-3)Gal(b1-4)GlcNAc(b1-2)Man(a1-6)]Man(b1-4)GlcNAc(b1-4)[Fuc(a1-6)]GlcNAc
In short: as §1

[44] = target: GlcNAc(b1-3)Gal(b1-4)GlcNAc(b1-2)[GlcNAc(b1-3)Gal(b1-4)GlcNAc(b1-6)]Man(a1-6)[GlcNAc(b1-3)Gal(b1-4)GlcNAc(b1-2)Man(a1-3)]Man(b1-4)GlcNAc(b1-4)GlcNAc
In short: as §1

[45] = target: GlcNAc(b1-3)Gal(b1-4)GlcNAc(b1-3)Gal(b1-4)GlcNAc
In short: as §1

B1: CSA (Cytisus scoparius), P29257 (protein)
chain: SEELSFSFTKFKTDQKNLILQRDALITPTGKLQLTTVENGKPAAYSLGRALYSTPIHIWDKSTGDEASFATFFSFVISDAPNPSTAATDGLAFFLAPADTQPQSAGGYLGLFEKDSSYNSSNQIVAVEFDTYYNSAWDPQTNPHIGIDVNTIKSKKVSSWGFKNGNVATVLITYQPSSKSLVASLVYPSGQTSDKTSYIISANVDLKATVPEWVRIGFSATTGQTDNYIETHDILSWSFKSKLPATKN
Q: Which results are given for B1?
A: glycan array binding signal (z-score) [1]: -0.254; glycan array binding signal (z-score) [2]: -0.201; glycan array binding signal (z-score) [3]: -0.215; glycan array binding signal (z-score) [4]: -0.109; glycan array binding signal (z-score) [5]: -0.073; glycan array binding signal (z-score) [6]: -0.19; glycan array binding signal (z-score) [7]: -0.141; glycan array binding signal (z-score) [8]: -0.171; glycan array binding signal (z-score) [9]: -0.218; glycan array binding signal (z-score) [10]: -0.177; glycan array binding signal (z-score) [11]: -0.194; glycan array binding signal (z-score) [12]: -0.202; glycan array binding signal (z-score) [13]: -0.043; glycan array binding signal (z-score) [14]: -0.278; glycan array binding signal (z-score) [15]: -0.26; glycan array binding signal (z-score) [16]: -0.161; glycan array binding signal (z-score) [17]: -0.2; glycan array binding signal (z-score) [18]: -0.174; glycan array binding signal (z-score) [19]: -0.202; glycan array binding signal (z-score) [20]: -0.196; glycan array binding signal (z-score) [21]: -0.154; glycan array binding signal (z-score) [22]: -0.181; glycan array binding signal (z-score) [23]: -0.111; glycan array binding signal (z-score) [24]: -0.19; glycan array binding signal (z-score) [25]: -0.18; glycan array binding signal (z-score) [26]: -0.183; glycan array binding signal (z-score) [27]: -0.139; glycan array binding signal (z-score) [28]: -0.238; glycan array binding signal (z-score) [29]: -0.206; glycan array binding signal (z-score) [30]: -0.158; glycan array binding signal (z-score) [31]: -0.241; glycan array binding signal (z-score) [32]: -0.21; glycan array binding signal (z-score) [33]: -0.166; glycan array binding signal (z-score) [34]: -0.131; glycan array binding signal (z-score) [35]: -0.197; glycan array binding signal (z-score) [36]: -0.222; glycan array binding signal (z-score) [37]: -0.151; glycan array binding signal (z-score) [38]: -0.192; glycan array binding signal (z-score) [39]: -0.184; glycan array binding signal (z-score) [40]: -0.204; glycan array binding signal (z-score) [41]: -0.188; glycan array binding signal (z-score) [42]: -0.231; glycan array binding signal (z-score) [43]: -0.148; glycan array binding signal (z-score) [44]: -0.112; glycan array binding signal (z-score) [45]: -0.161
